Target: Recombinant Human IL-13 (human, UniProt P35225 partial chain, limits assumed)
Assay: cell-based or functional assay

Sequence of UniProt P35225 (P35225 35-146 limits assumed): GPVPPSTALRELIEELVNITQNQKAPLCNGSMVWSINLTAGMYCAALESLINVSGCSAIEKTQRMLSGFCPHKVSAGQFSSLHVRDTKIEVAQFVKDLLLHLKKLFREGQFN

Row | Binder | IL-13 Neutralization Assay IC50 [nM]
1 | DVD3144 (bispecific antibody, human IgG1, kappa) heavy: EVQLVESGGGLVQPGGSLRLSCAASGFTFSNYGVTWVRQAPGKGLEWVSMIWADGSTHYASSVKGRFTISRDNSKNTLYLQMNSLRAEDTAVYYCAREWQHGPVAYWGQGTLVTVSSASTKGPEVQLVQSGAEVKKPGASVKVSCKASGYTFTSYWMHWVRQAPGQGLEWIGNINPKGGSNIYNEKFQGRVTMTRDTSISTAYMELSRLRSDDTAVYYCARLDYFGDSFDLWGQGTTVTVSS[here human IgG1 constant region without letters] light: DIQMTQSPSSLSASVGDRVTITCRASQLVSSAVAWYQQKPGKAPKLLIYWASARHTGVPSRFSGSGSGTDFTLTISSLQPEDFATYYCQQHYKTPFTFGQGTKLEIKRTVAAPDIQMTQSPSSLSASVGDRVTITCRASQGIRNYLNWYQQKPGKAPKLLIYYASNLEVGVPSRFSGSGSGTDYTLTISSLQPEDFATYYCQQDNRFPYTFGGGTKVEIKRTVAAPSVFIFPPSDEQLKSGTASVVCLLNNFYPREAKVQWKVDNALQSGNSQESVTEQDSKDSTYSLSSTLTLSKADYEKHKVYACEVTHQGLSSPVTKSFNRGEC | 0.209
2 | DVD3146 (bispecific antibody, human IgG1, kappa) heavy: EVQLVESGGGLVQPGGSLRLSCAASGFTFSNYGVTWVRQAPGKGLEWVSMIWADGSTHYASSVKGRFTISRDNSKNTLYLQMNSLRAEDTAVYYCAREWQHGPVAYWGQGTLVTVSSASTKGPEVQLVQSGAEVKKPGASVKVSCKASGYTFTSYWMHWVRQAPGQGLEWIGNINPKGGSNIYNEKFQGRVTMTRDTSISTAYMELSRLRSDDTAVYYCARLDYFGDSFDLWGQGTTVTVSS[here human IgG1 constant region without letters] light: DIQMTQSPSSLSASVGDRVTITCRASQLVSSAVAWYQQKPGKAPKLLIYWASARHTGVPSRFSGSGSGTDFTLTISSLQPEDFATYYCQQHYKTPFTFGQGTKLEIKRTVAAPSVFIFPPDIQMTQSPSSLSASVGDRVTITCRASQGIRNYLNWYQQKPGKAPKLLIYYASNLEVGVPSRFSGSGSGTDYTLTISSLQPEDFATYYCQQDNRFPYTFGGGTKVEIKRTVAAPSVFIFPPSDEQLKSGTASVVCLLNNFYPREAKVQWKVDNALQSGNSQESVTEQDSKDSTYSLSSTLTLSKADYEKHKVYACEVTHQGLSSPVTKSFNRGEC | 0.051
3 | DVD3156 (bispecific antibody, human IgG1, kappa) heavy: EVQLVESGGGLVQPGGSLRLSCAASGFTFSNYGVEWVRQAPGKGLEWVSGIWADGSTHYADTVKSRFTISRDNSKNTLYLQMNSLRAEDTAVYYCAREWQHGPVAYWGQGTLVTVSSASTKGPEVQLVQSGAEVKKPGASVKVSCKASGYTFTSYWMHWVRQAPGQGLEWIGNINPKGGSNIYNEKFQGRVTMTRDTSISTAYMELSRLRSDDTAVYYCARLDYFGDSFDLWGQGTTVTVSS[here human IgG1 constant region without letters] light: DIQMTQSPSSLSASVGDRVTITCKASQLVSSAVAWYQQKPGKAPKLLIYWASTLHTGVPSRFSGSGSGTDFTLTISSLQPEDFATYYCQQHYRTPFTFGQGTKLEIKRTVAAPSVFIFPPDIQMTQSPSSLSASVGDRVTITCRASQGIRNYLNWYQQKPGKAPKLLIYYASNLEVGVPSRFSGSGSGTDYTLTISSLQPEDFATYYCQQDNRFPYTFGGGTKVEIKRTVAAPSVFIFPPSDEQLKSGTASVVCLLNNFYPREAKVQWKVDNALQSGNSQESVTEQDSKDSTYSLSSTLTLSKADYEKHKVYACEVTHQGLSSPVTKSFNRGEC | 0.062
4 | DVD3154 (bispecific antibody, human IgG1, kappa) heavy: EVQLVESGGGLVQPGGSLRLSCAASGFTFSNYGVEWVRQAPGKGLEWVSGIWADGSTHYADTVKSRFTISRDNSKNTLYLQMNSLRAEDTAVYYCAREWQHGPVAYWGQGTLVTVSSASTKGPEVQLVQSGAEVKKPGASVKVSCKASGYTFTSYWMHWVRQAPGQGLEWIGNINPKGGSNIYNEKFQGRVTMTRDTSISTAYMELSRLRSDDTAVYYCARLDYFGDSFDLWGQGTTVTVSS[here human IgG1 constant region without letters] light: DIQMTQSPSSLSASVGDRVTITCKASQLVSSAVAWYQQKPGKAPKLLIYWASTLHTGVPSRFSGSGSGTDFTLTISSLQPEDFATYYCQQHYRTPFTFGQGTKLEIKRTVAAPDIQMTQSPSSLSASVGDRVTITCRASQGIRNYLNWYQQKPGKAPKLLIYYASNLEVGVPSRFSGSGSGTDYTLTISSLQPEDFATYYCQQDNRFPYTFGGGTKVEIKRTVAAPSVFIFPPSDEQLKSGTASVVCLLNNFYPREAKVQWKVDNALQSGNSQESVTEQDSKDSTYSLSSTLTLSKADYEKHKVYACEVTHQGLSSPVTKSFNRGEC | 0.175
5 | DVD3143 (bispecific antibody, human IgG1, kappa) heavy: EVQLVESGGGLVQPGGSLRLSCAASGFTFSNYGVTWVRQAPGKGLEWVSMIWADGSTHYASSVKGRFTISRDNSKNTLYLQMNSLRAEDTAVYYCAREWQHGPVAYWGQGTLVTVSSGGGGSGGGGSEVQLVQSGAEVKKPGASVKVSCKASGYTFTSYWMHWVRQAPGQGLEWIGNINPKGGSNIYNEKFQGRVTMTRDTSISTAYMELSRLRSDDTAVYYCARLDYFGDSFDLWGQGTTVTVSS[here human IgG1 constant region without letters] light: DIQMTQSPSSLSASVGDRVTITCRASQLVSSAVAWYQQKPGKAPKLLIYWASARHTGVPSRFSGSGSGTDFTLTISSLQPEDFATYYCQQHYKTPFTFGQGTKLEIKRGGSGGGGSGDIQMTQSPSSLSASVGDRVTITCRASQGIRNYLNWYQQKPGKAPKLLIYYASNLEVGVPSRFSGSGSGTDYTLTISSLQPEDFATYYCQQDNRFPYTFGGGTKVEIKRTVAAPSVFIFPPSDEQLKSGTASVVCLLNNFYPREAKVQWKVDNALQSGNSQESVTEQDSKDSTYSLSSTLTLSKADYEKHKVYACEVTHQGLSSPVTKSFNRGEC | 0.057
6 | DVD3011 (bispecific antibody, human IgG1, kappa) heavy: EVQLVQSGAEVKKPGASVKVSCKASGYTFNNYGIIWVRQAPGQGLEWMGWINTYTGKPTYAQKFQGRVTMTTDTSTSTAYMELSSLRSEDTAVYYCARKLFNTVAVTDNAMDYWGQGTTVTVSSASTKGPEVTLRESGPGLVKPTQTLTLTCTLYGFSLSTSDMGVDWIRQPPGKGLEWLAHIWWDDVKRYNPALKSRLTISKDTSKNQVVLKLTSVDPVDTATYYCARTVSSGYIYYAMDYWGQGTLVTVSS[here human IgG1 constant region without letters] light: DIQMTQSPSSLSASVGDRVTITCRASQDIENYLNWYQQKPGKAPKLLIYYTSRLQSGVPSRFSGSGSGTDFTLTISSLQPEDFATYFCQQGNTQPPTFGQGTKLEIKRTVAAPSVFIFPPDIQMTQSPSSLSASVGDRVTISCRASQDIRNYLNWYQQKPGKAPKLLIFYTSKLHSGVPSRFSGSGSGTDYTLTISSLQPEDIATYYCQQGLTPPLTFGGGTKVEIKRTVAAPSVFIFPPSDEQLKSGTASVVCLLNNFYPREAKVQWKVDNALQSGNSQESVTEQDSKDSTYSLSSTLTLSKADYEKHKVYACEVTHQGLSSPVTKSFNRGEC | 0.242

Second part, the binder after the results:

Row | IL-13 Neutralization Assay IC50 [nM] | Binder
7 | 0.064 | DVD3153 (bispecific antibody, human IgG1, kappa) heavy: EVQLVESGGGLVQPGGSLRLSCAASGFTFSNYGVEWVRQAPGKGLEWVSGIWADGSTHYADTVKSRFTISRDNSKNTLYLQMNSLRAEDTAVYYCAREWQHGPVAYWGQGTLVTVSSGGGGSGGGGSEVQLVQSGAEVKKPGASVKVSCKASGYTFTSYWMHWVRQAPGQGLEWIGNINPKGGSNIYNEKFQGRVTMTRDTSISTAYMELSRLRSDDTAVYYCARLDYFGDSFDLWGQGTTVTVSS[here human IgG1 constant region without letters] light: DIQMTQSPSSLSASVGDRVTITCKASQLVSSAVAWYQQKPGKAPKLLIYWASTLHTGVPSRFSGSGSGTDFTLTISSLQPEDFATYYCQQHYRTPFTFGQGTKLEIKRGGSGGGGSGDIQMTQSPSSLSASVGDRVTITCRASQGIRNYLNWYQQKPGKAPKLLIYYASNLEVGVPSRFSGSGSGTDYTLTISSLQPEDFATYYCQQDNRFPYTFGGGTKVEIKRTVAAPSVFIFPPSDEQLKSGTASVVCLLNNFYPREAKVQWKVDNALQSGNSQESVTEQDSKDSTYSLSSTLTLSKADYEKHKVYACEVTHQGLSSPVTKSFNRGEC
8 | 0.563 | DVD3009 (bispecific antibody, human IgG1, kappa) heavy: EVQLVQSGAEVKKPGASVKVSCKASGYTFNNYGIIWVRQAPGQGLEWMGWINTYTGKPTYAQKFQGRVTMTTDTSTSTAYMELSSLRSEDTAVYYCARKLFNTVAVTDNAMDYWGQGTTVTVSSASTKGPEVTLRESGPGLVKPTQTLTLTCTLYGFSLSTSDMGVDWIRQPPGKGLEWLAHIWWDDVKRYNPALKSRLTISKDTSKNQVVLKLTSVDPVDTATYYCARTVSSGYIYYAMDYWGQGTLVTVSS[here human IgG1 constant region without letters] light: DIQMTQSPSSLSASVGDRVTITCRASQDIENYLNWYQQKPGKAPKLLIYYTSRLQSGVPSRFSGSGSGTDFTLTISSLQPEDFATYFCQQGNTQPPTFGQGTKLEIKRTVAAPDIQMTQSPSSLSASVGDRVTISCRASQDIRNYLNWYQQKPGKAPKLLIFYTSKLHSGVPSRFSGSGSGTDYTLTISSLQPEDIATYYCQQGLTPPLTFGGGTKVEIKRTVAAPSVFIFPPSDEQLKSGTASVVCLLNNFYPREAKVQWKVDNALQSGNSQESVTEQDSKDSTYSLSSTLTLSKADYEKHKVYACEVTHQGLSSPVTKSFNRGEC
9 | 0.207 | DVD3012 (bispecific antibody, human IgG1, kappa) heavy: EVQLVQSGAEVKKPGASVKVSCKASGYTFNNYGIIWVRQAPGQGLEWMGWINTYTGKPTYAQKFQGRVTMTTDTSTSTAYMELSSLRSEDTAVYYCARKLFNTVAVTDNAMDYWGQGTTVTVSSASTKGPSVFPLAPEVTLRESGPGLVKPTQTLTLTCTLYGFSLSTSDMGVDWIRQPPGKGLEWLAHIWWDDVKRYNPALKSRLTISKDTSKNQVVLKLTSVDPVDTATYYCARTVSSGYIYYAMDYWGQGTLVTVSS[here human IgG1 constant region without letters] light: DIQMTQSPSSLSASVGDRVTITCRASQDIENYLNWYQQKPGKAPKLLIYYTSRLQSGVPSRFSGSGSGTDFTLTISSLQPEDFATYFCQQGNTQPPTFGQGTKLEIKRTVAAPDIQMTQSPSSLSASVGDRVTISCRASQDIRNYLNWYQQKPGKAPKLLIFYTSKLHSGVPSRFSGSGSGTDYTLTISSLQPEDIATYYCQQGLTPPLTFGGGTKVEIKRTVAAPSVFIFPPSDEQLKSGTASVVCLLNNFYPREAKVQWKVDNALQSGNSQESVTEQDSKDSTYSLSSTLTLSKADYEKHKVYACEVTHQGLSSPVTKSFNRGEC
